Source: article PMC4918326
Positions count from the first letter of the chain named. No constants are given. Whether binding was seen depends on the method and setting. For part of these data: Binding seen in cells or lysates may run through a third protein. Some results given as binding are weak or reduced against the parent protein; the word gives no strength. For part of these data: Where a sequence is shown, tags or fusion partners need not be part of it. Values belong to the substance of their own block, whether it stands above or below them.

Chains of the proteins cited; added tags and fusions are not shown. Lines headed by an entry give the natural chain unless they say otherwise; changes in a name come on top. A line that says so, or that is headed by a name, gives the form on record, which may keep a tag or linker.
UniProt Q7Z434: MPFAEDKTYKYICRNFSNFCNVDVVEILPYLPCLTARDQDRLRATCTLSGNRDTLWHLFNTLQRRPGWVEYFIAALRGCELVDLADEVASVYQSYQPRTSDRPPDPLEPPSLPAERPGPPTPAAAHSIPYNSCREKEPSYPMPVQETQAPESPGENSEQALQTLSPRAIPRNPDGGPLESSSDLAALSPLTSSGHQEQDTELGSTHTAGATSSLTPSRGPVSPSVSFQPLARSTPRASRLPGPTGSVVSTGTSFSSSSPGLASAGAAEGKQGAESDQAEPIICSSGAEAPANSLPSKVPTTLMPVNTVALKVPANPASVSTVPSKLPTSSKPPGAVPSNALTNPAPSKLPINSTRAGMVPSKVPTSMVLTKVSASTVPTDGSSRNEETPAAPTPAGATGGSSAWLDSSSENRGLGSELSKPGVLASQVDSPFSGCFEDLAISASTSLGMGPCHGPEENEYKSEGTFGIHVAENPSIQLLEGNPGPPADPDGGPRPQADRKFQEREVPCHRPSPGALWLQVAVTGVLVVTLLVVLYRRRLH
Flag-MAVS^ΔCARD (Q7Z434, form named): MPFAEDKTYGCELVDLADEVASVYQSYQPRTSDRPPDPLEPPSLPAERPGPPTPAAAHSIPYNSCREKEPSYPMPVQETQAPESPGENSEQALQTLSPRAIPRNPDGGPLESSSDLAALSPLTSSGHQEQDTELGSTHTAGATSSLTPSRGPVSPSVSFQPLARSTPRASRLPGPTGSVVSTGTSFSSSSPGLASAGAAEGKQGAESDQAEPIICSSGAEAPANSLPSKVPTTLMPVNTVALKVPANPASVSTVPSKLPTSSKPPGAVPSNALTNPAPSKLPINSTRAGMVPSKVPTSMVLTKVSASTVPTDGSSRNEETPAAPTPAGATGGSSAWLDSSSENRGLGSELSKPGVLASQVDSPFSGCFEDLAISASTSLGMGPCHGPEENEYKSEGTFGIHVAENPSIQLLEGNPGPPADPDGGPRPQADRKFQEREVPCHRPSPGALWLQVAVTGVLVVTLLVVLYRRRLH

Columns and labels:
Myc-MARCH5^WT [1] = biological target: T1, Myc-MARCH5^WT (UniProt Q9NX47); assay: co-IP; HEK293T cells co-transfected with Myc-MARCH5 and Flag-MAVS plasmids for 36 h; lysis and washes in RIPA buffer; immunoblotting with indicated antibodies
T1 sequence: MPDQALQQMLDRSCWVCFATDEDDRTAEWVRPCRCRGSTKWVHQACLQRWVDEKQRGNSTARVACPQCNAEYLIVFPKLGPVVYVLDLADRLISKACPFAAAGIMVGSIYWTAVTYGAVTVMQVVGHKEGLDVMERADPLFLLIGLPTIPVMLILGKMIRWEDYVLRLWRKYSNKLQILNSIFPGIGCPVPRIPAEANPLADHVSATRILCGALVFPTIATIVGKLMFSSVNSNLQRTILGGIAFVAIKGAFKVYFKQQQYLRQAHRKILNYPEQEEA

[2] = biological target: T2, MARCH5 (bait of the streptavidin-affinity purification) (UniProt Q9NX47); assay: streptavidin-affinity purification; preliminary data, not shown; streptavidin-affinity purification of MARCH5
T2 sequence: T1 sequence

Myc-MARCH5^H43W = biological target: T3, Myc-MARCH5^H43W (UniProt Q9NX47); assay: co-IP; HEK293T cells co-transfected with Myc-MARCH5 and Flag-MAVS plasmids for 36 h; lysis and washes in RIPA buffer; immunoblotting with indicated antibodies
T3 sequence: T1 sequence with H43W

[3] = biological target: T4, GST-MARCH5 C terminus (AAs 259–278) (UniProt Q9NX47); assay: pull-down; only the target purified
T4 sequence: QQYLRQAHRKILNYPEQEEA

[4] = biological target: T5, GST-MARCH5 cytosolic loop (AAs 160–208) (UniProt Q9NX47); assay: pull-down; only the target purified
T5 sequence: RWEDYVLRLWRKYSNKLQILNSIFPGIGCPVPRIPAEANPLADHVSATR

[5] = biological target: T6, endogenous MARCH5 (human (endogenous in HEK293T)) (UniProt Q9NX47); assay: co-IP
T6 sequence: T1 sequence

Myc-MARCH5^WT [6] = biological target: T1, Myc-MARCH5^WT; assay: co-IP
[7] = biological target: T7, GST-conjugated MARCH5 wild-type protein (UniProt Q9NX47); assay: pull-down; GST-conjugated MARCH5 wild-type protein purified from insect, incubated with cell lysates treated with/without poly(I:C); only the target purified
T7 sequence: T1 sequence

- binding (Myc-MARCH5^WT [1]): no binding
Substance: Flag-MAVS^ΔCARD (from UniProt Q7Z434 1-540)

- binding [2]: binds
Substance: MAVS (found in the streptavidin-affinity purification of MARCH5) (from UniProt Q7Z434 1-540)

- binding (Myc-MARCH5^H43W): binds
- binding (Myc-MARCH5^WT [1]): binds
- binding [3]: no binding
- binding [4]: no binding
Substance: Flag-MAVS^WT (from UniProt Q7Z434 1-540)

- binding [5]: binds
- binding (Myc-MARCH5^WT [6]): binds
Substance: endogenous MAVS (from UniProt Q7Z434 1-540)

- binding [7]: binds
Substance: MAVS in cell lysates treated with/without poly(I:C) (GST pull-down, Fig. 5e) (from UniProt Q7Z434 1-540)
